Reference: article PMC4336329 (PLoS ONE, 2015)
The whole screen tested about 310,000 compounds, of which about 2,200 (0.71%) showed an effect of 50% or more. Effects have a minus sign here. The list shows a part of the results.

Target: human ether-à-go-go-related gene (hERG) potassium channel (human, UniProt Q12809)
Assay: primary screen, population patch clamp on CHO cells stably expressing hERG

Sequence of human ether-à-go-go-related gene (hERG) potassium channel (Q12809 whole entry, looked up): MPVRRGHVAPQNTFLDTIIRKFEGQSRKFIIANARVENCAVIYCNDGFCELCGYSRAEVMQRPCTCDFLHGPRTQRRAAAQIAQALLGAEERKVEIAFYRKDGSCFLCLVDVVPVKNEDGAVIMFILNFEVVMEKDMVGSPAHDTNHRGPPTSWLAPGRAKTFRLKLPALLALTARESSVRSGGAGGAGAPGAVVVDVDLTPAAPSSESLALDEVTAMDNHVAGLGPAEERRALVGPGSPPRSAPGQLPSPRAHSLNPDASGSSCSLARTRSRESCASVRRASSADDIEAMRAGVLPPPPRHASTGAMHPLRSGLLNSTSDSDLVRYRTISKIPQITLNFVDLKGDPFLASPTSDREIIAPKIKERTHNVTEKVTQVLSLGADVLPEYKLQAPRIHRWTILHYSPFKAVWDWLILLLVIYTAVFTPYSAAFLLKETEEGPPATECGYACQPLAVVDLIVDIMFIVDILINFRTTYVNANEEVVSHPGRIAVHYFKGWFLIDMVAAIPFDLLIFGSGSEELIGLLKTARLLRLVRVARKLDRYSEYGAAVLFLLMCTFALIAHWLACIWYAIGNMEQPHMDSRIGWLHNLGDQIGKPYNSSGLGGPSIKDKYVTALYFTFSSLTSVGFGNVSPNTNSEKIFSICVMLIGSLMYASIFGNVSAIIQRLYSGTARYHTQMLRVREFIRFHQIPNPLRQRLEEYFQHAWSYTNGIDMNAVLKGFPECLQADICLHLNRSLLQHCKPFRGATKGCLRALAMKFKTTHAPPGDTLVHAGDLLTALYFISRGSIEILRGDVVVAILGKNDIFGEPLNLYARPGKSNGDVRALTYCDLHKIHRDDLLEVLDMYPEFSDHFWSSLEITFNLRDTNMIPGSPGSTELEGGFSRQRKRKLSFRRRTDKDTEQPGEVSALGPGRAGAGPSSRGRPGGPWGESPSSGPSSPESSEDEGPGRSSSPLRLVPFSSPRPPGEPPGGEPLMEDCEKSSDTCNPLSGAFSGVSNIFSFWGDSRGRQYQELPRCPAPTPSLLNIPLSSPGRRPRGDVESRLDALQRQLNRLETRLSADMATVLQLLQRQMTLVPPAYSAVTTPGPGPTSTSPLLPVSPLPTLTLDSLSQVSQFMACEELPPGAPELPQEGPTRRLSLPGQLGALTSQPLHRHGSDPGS

SMILES | hERG current change (%, negative = inhibition) at 1uM
Cc1nn(Cc2c(F)c(F)c(F)c(F)c2F)c(C)c1NC(=O)c1c([N+](=O)[O-])c(C)nn1C | 18.8%
O=C1CCC([N+](=O)[O-])C(c2ccc(Br)cc2)N1 (stereo not shown) | 15.1%
O=C(CN1CCN(c2ccccc2)CC1)N/N=C/c1cccc(F)c1 | 14.1%
Cc1ccc(/C=C2/NC(=O)N(Cc3ccccc3F)C2=O)s1 | 12%
CCOC(=O)C1=C(COC(=O)CNC(=O)c2ccccc2F)NC(=O)NC1C (stereo not shown) | 7.48%
COc1ccc(N2CC(C(=O)NNC(=O)c3ccc(Br)cc3)CC2=O)c(OC)c1 (stereo not shown) | 5.14%
CCN(CC)CCCN=C(C)c1c(O)n(C2CCCCC2)c(=O)[nH]c1=O | -22.1%
CCc1nn(CCCC(=O)N2CCN(c3ccc(OC)cc3)CC2)c(=O)c2cc3occc3n12 | -0.618%
CCOC(=O)C(C)Oc1cccc2c(=O)n(CC(=O)Nc3ccc(OCC)cc3)ccc12 (stereo not shown) | 1.46%
O=C(Cc1cccc(NC(=O)C2CCN(C(=O)C3CCCCC3)CC2)c1)Nc1cccc(C(=O)N2CCCC2)c1 | 5.8%
Nc1ccc(/C=C/C(=O)c2ccco2)cc1 | 1.26%
COc1ccc(CN2CCN(C3CCOCC3)CC2CCO)c(C)c1C (stereo not shown) | 15.2%
CC(OC(=O)/C=C/c1ccccc1)C(=O)Nc1ccc(C(N)=O)cc1 (stereo not shown) | 10.3%
Cc1cc(C(C)c2ccccc2)c(O)c(CN2CCOCC2)c1C (stereo not shown) | 15.6%
CC(C)C[C@@H](CO)N(Cc1ccccc1)S(=O)(=O)N(Cc1ccccc1)[C@H](CO)CC(C)C | 15.7%
O=C(c1ccc2oc(Cc3ccc(Cl)cc3)nc2c1)N1CCCCC1CCO (stereo not shown) | 6.56%
CCc1ccc(CN(C)C(=O)c2cc(COc3cccc4cnccc34)on2)cc1 | 6.54%
O=C(CCc1nnc(-c2ccc3c(c2)OCO3)o1)NC(c1ccccn1)C(F)(F)F (stereo not shown) | 8.3%
CCC(c1nnnn1C(C)(C)C)N1CCN(Cc2ccccc2OC)CC1.Cl (stereo not shown) | 7.97%
CC(=O)NCCn1c(SCC(=O)NCCc2ccc(S(N)(=O)=O)cc2)nc2ccccc2c1=O | 10.6%
Cc1csc(NC(=O)CSc2ccc3nnc(CCNS(=O)(=O)c4ccccc4)n3n2)n1 | 13.1%
COC(=O)C1=C(C)NC(C)=C(C(=O)OC)C1c1ccc(OC(=O)c2ccco2)cc1 | 8.64%

SMILES | hERG current change (%, negative = inhibition) at 1uM
CCOc1ccc(C2C(C(=O)c3ccco3)=C(O)C(=O)N2Cc2cccnc2)cc1 (stereo not shown) | 11.7%
CCCC(=O)N1CCN(c2ccc(NC(=S)NC(=O)c3cccc(C)c3)cc2)CC1 | 9.45%
Cc1nccn1CC(=O)N/N=C/c1cccs1 | 16.7%
CNC(=S)N/N=C/c1ccc(-c2ccc(C(=O)O)cc2)o1 | 7.89%
O=C(ONC1=NCCCCC1)c1cccc([N+](=O)[O-])c1 | 11.8%
COC(=O)c1ccccc1NC(=O)N1CCN(c2ccccc2F)CC1 | 4.17%
COc1ccc(C(=O)Nc2cc(C)on2)cc1 | 16.6%
Cc1cccc(C(=O)NNC(=O)CCCCC(=O)NNC(=O)c2cccc(C)c2)c1 | 12.8%
CCCNS(=O)(=O)c1ccc(OCC(=O)Nc2ccc3c(c2)OCO3)cc1 | 12.7%
COc1ccc(C(C(=O)NCc2ccc(F)cc2)N(Cc2cccnc2)C(=O)c2snc(C(N)=O)c2N)cc1 (stereo not shown) | -4.6%
O=C1NC(=O)C2(COC3(CCCC3)OC2)S1 | 8.97%
COc1ccc(C(=O)/C=C\c2ccc(NC(=O)c3cccs3)cc2)cc1 | 9.76%
CCc1ccc2oc(-c3ccc(OC)cc3)cc(=[NH+]c3c(C)n(C)n(-c4ccccc4)c3=O)c2c1.F[B-](F)(F)F | -33.7%
Cc1ccc(NC(=O)CCNS(=O)(=O)c2ccccc2)c(C(=O)c2ccccc2)c1 | 21.4%
CN(CCn1ccnc1)Cc1cn(Cc2ccccc2)nc1-c1ccc2c(c1)OCO2 | 15.4%
COc1ccccc1N/N=C(\C#N)C(=N)N1CCOCC1 | 9.2%
O=C(/C=C/c1c(Cl)cccc1Cl)n1cccn1 | 11.5%
CC(Nc1ccccc1)c1cccnc1 (stereo not shown) | 4.59%
O=[N+]([O-])c1ccccc1S(=O)(=O)n1cnc2ccccc21 | 14.6%
NS(=O)(=O)c1ccc(CNC(=O)c2ccc(Br)o2)cc1 | 1.09%
c1ccc(-n2nnnc2N2CCOCC2)cc1 | 7.82%
O=C(Cc1ccccc1)N/N=C/C=C/c1ccccc1[N+](=O)[O-] | 12.5%

SMILES | hERG current change (%, negative = inhibition) at 1uM
COc1ccc(-n2cc(CNCC3CCOCC3)c(-c3cccc(F)c3)n2)cc1 | -8.59%
Cc1ccn2cc(-c3ccc(O)c(O)c3)nc2c1.Cl | 10.5%
Cl.OC(CN1C2=NCCN2c2ccccc21)c1ccccc1 (stereo not shown) | -5.32%
CCOC(=O)N1CCN(C(=O)c2cccc(NC(=O)c3ccco3)c2)CC1 | 1.9%
Cc1cccc(CC(=O)N2CCCC2)c1 | 12.6%
Cn1c(SCC(=O)NC2CCCCCC2)nnc1-c1cccs1 | -9.47%
CCOc1ccc(N=Cc2c(O)c3ccccc3oc2=O)cc1 | 7.72%
COc1cc2c(cc1NC(=O)C(C)Sc1ccc(NC(C)=O)cc1)oc1ccccc12 (stereo not shown) | 6.08%
O=C(NCc1ccc(F)cc1)C(c1ccccc1)c1ccccc1 | 8.11%
Cc1ccc(S(=O)(=O)N(C)CC(=O)NCC(c2ccco2)N(C)C)cc1 (stereo not shown) | 4.17%
COc1ccccc1C(=O)N1CC(=O)Nc2ccc(C)cc2C1c1ccc(F)cc1 (stereo not shown) | -22%
CS(=O)(=O)c1ccc(Cl)c(NC(=O)COC(=O)CCN=C2NS(=O)(=O)c3ccccc32)c1 | -14%
CC(C)c1ccc(NC(=O)c2cc([N+](=O)[O-])ccc2N2CCOCC2)cc1 | -5.4%
O=C(COc1ccccc1)Nc1ccc(Cl)cc1C(=O)c1ccccc1 | 6.97%
COc1ccccc1/C=C/C(=O)NCC(=O)N/N=C(/C)c1ccc(Cl)cc1 | 16%
O=C(Cc1cccs1)Nc1ccc(N2CCOCC2)cc1 | 19.6%
CCc1ccccc1S(=O)(=O)Cc1ccc(C(=O)N2CCN(c3ccccc3OC)CC2)o1 | -3.08%
CCOC(=O)c1[nH]c(CSc2nnc(-c3ccncc3)n2CCOC)c(C(=O)OCC)c1C | -3.93%
COc1ccc(-c2c(C#N)c(N)n(N)c(=O)c2C#N)cc1Cl | 14.6%
Cc1cc2cc3c(cc2nc1SCc1ccccn1)OCCO3 | 11.9%
COc1ccc(N(CC(=O)N2CCN(c3cccc(C)c3C)CC2)S(=O)(=O)c2c(C)noc2C)cc1 | 13.2%
N#Cc1c(N)nc(SC2CCCCC2=O)c(C#N)c1-c1ccco1 (stereo not shown) | -2.08%

SMILES | hERG current change (%, negative = inhibition) at 1uM
COc1cccc(CN(CC(=O)NCc2ccccc2)S(=O)(=O)CCl)c1 | 10.6%
COc1ccc(C(=O)NCC(=O)NCC(=O)OCC(=O)c2cccs2)cc1 | 6.28%
C=CCNC(=S)N/N=C(\C)c1ccc(-n2ccnc2)cc1 | 0.524%
O=C(COC(=O)CNC(=O)C1CCCCC1)Nc1cccc(F)c1 | 4.51%
CCOC(=O)c1c(NC(=O)c2cc(-c3ccc(O)cc3)on2)sc(C(C)=O)c1C | 11.5%
CC(=O)N1CCN(c2ccc(NC(=O)c3ccc4c(c3)OCO4)cc2)CC1 | 1.35%
CCOC(=O)c1cnc(C(C)(C)C)[nH]c1=O | 8.69%
CNC(C)c1cc(OC)ccc1OC (stereo not shown) | 14.1%
CC1=C(C(=O)N2CCCC(CCC(=O)NCc3ccccc3F)C2)OCCO1 (stereo not shown) | 7.2%
N#CCCn1cc(/C=N/NC(=O)c2ccncc2)c(-c2ccccc2)n1 | -0.828%
COc1ccccc1N1CCN(C(=O)c2c(-c3ccccc3)noc2C)CC1 | -29.2%
Cc1ccc(NC(=O)CO/N=C/c2ccc(N(C)C)cc2)cc1 | 24.7%
CCCC(=O)Nc1c2c(nn1-c1cccc(C)c1C)CS(=O)(=O)C2 | 4.62%
Cc1nc(NC2CCCC2)sc1C(=O)N(C)C | 12.7%
CC(C)CC(C(=O)NCC1CCCO1)N(C(=O)Cn1nnc(-c2ccc(F)cc2)n1)c1ccccc1F (stereo not shown) | -10.1%
CC(=O)c1cccc(N(C(=O)c2csnn2)C(C(=O)NC2CCCC2)c2ccccc2)c1 (stereo not shown) | 0.77%
O=C(O)CCCC(=O)NNC(=O)c1cccc(Br)c1 | 12.3%
CCCN1C2CCCC1CC(NC(=S)Nc1cccc(C)c1)C2 (stereo not shown) | -12.7%
CCOC(=O)CSc1nnc2c3ccccc3n(C)c2n1 | 8.31%
S=C(NCc1ccco1)Nc1cc(Cl)c(Cl)cc1Cl | 15.5%
COc1ccc(C(=S)NC2CCCCC2)cc1 | -7.54%
CNC(=S)NNC(=O)c1cccn(Cc2ccc(Cl)cc2Cl)c1=O | 0.881%
